In all, about 200,000 compounds went through this assay and about 4,500 (2.2%) were called active. The shares of active, inactive and inconclusive entries below differ from those in the screen. Calls come from the whole dose curve; as a rule, active = well fitted inhibition curve with a large enough effect; inconclusive = small, poorly fitted or top-dose-only effect, or effect the other way; inactive = flat fitted curve, though single readings scatter. Where the call is inconclusive, the potency comes from a doubtful curve fit. The source holds several records for some structures; these can differ, active in one and inactive in another.
These molecules were tested against Cruzipain (Trypanosoma cruzi) (UniProt P25779) (assay: qHTS Assay for Promiscuous and Specific Inhibitors of Cruzain (without detergent)). Conditions: purified cruzain, Z-FR-AMC fluorescence, no detergent.
Outline: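 Detergent-free condition (0.00005% Triton X-100) in acetate buffer pH 5.5 with DTT. 1.5 nM enzyme and compound were pre-mixed 15 min, then 2 uM Z-FR-AMC substrate added; reaction progress from fluorescence change between first and third reads (60 s).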
Note: nearly all actives have a fitted effect of over 40% in size.
Potency is the fitted concentration of half-maximal effect; tags give direction and shape of the fitted curve.
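Throughout, for max response, negative = inhibition: plate controls were enzyme without inhibitor for no effect and buffer without enzyme for full effect.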

UniProt P25779, sequence (P25779 whole entry, looked up): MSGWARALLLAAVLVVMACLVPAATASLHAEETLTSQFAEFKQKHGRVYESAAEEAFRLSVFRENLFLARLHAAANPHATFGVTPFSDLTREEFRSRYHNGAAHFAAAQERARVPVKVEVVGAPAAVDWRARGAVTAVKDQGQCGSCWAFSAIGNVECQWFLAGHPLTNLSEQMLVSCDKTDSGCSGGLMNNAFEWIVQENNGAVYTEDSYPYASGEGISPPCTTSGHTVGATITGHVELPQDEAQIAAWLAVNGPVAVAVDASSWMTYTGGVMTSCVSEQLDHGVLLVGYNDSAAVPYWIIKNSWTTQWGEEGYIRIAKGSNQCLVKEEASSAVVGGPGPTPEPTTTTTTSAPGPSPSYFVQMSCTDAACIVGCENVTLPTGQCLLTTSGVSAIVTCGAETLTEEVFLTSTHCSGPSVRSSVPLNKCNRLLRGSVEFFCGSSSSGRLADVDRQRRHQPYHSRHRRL

Row | SMILES | Potency | max response, negative = inhibition
1 | CCc1cc2cc3c(cc2nc1SCC(=O)Nc1nccs1)OCO3 | active: 20 µM | 
2 | C[C@@]1(C(=O)O)NCCc2cc(O)c(O)cc21 | inconclusive: 39.8 µM [inhibitor, single point] | 
3 | Cc1nc(N2C(=O)c3oc4ccccc4c(=O)c3C2c2ccccc2F)sc1C (centres undefined) |  | inactive: 2.13%
4 | Cc1cc(C(=O)CSc2nc(N)cc(=O)[nH]2)c(C)n1CCc1ccc(Cl)cc1 | active: 12.6 µM | 
5 | CCOc1ccc(-c2nc(CSCC(=O)N3CCN(c4cccc(C(F)(F)F)c4)CC3)c(C)o2)cc1 | inconclusive: 12.6 µM [activator, partial curve] | 
6 | Cc1cc2c3c(c1)C1(C(=O)N3C(C)(C)CC2C)C(C#N)=C(N)Oc2cc(O)ccc21 (centres undefined) | inconclusive: 7.94 µM [activator, single point] | 
7 | CC1CCCC(NC(=O)C2CCCN2S(=O)(=O)c2cccc3nsnc23)C1C (centres undefined) | inconclusive: 0.0158 µM [inhibitor, full curve, poor fit] | 
8 | CCN(CC)C(=O)c1sc(NC(=O)c2ccc(C)c([N+](=O)[O-])c2)c(C#N)c1C | inconclusive: 39.8 µM [inhibitor, single point] | 
9 | O=C(CSc1ncc(S(=O)(=O)c2ccc(Br)cc2)c(=O)[nH]1)NCc1ccc(Cl)cc1 | inconclusive: 39.8 µM [activator, single point] | 
10 | CC1(C)NC(=O)N(CCCCOc2ccc(Br)cc2Cl)C1=O | inconclusive: 31.6 µM [activator, single point] | 
11 | O=C(O)c1c(C(=O)O)c2ccccc2[nH]c1=O |  | inactive: -8.79%
12 | Cc1ccc(Cl)c2c1N[C@@H](c1ccc(C(=O)O)cc1)[C@H]1CC=C[C@@H]21 | inconclusive: 39.8 µM [activator, single point] | 
13 | COc1ccccc1CNS(=O)(=O)c1cc(C(=O)Nc2cccc(C(F)(F)F)c2)ccc1F |  | inactive: 11.7%
14 | CC(C)(C)c1ccc(C(=O)N/C(N)=N/c2nc3ccccc3o2)cc1 | inconclusive: 31.6 µM [inhibitor, single point] | 
15 | COc1nc(OC/C(N)=N/O)nc(N2CCOCC2)n1 |  | inactive: 6.71%
16 | Cc1ccc(Cl)cc1N1CCN(S(=O)(=O)c2ccc3[nH]c4c(c3c2)CCCCC4)CC1 | active: 5.01 µM | 
17 | CCOCCc1nn2c(=O)cc(COC(=O)CNC(=O)c3ccc(C(C)(C)C)cc3)nc2s1 | inconclusive: 31.6 µM [activator, single point] | 
18 | O=C(Nn1c(C2CCCCC2)nc2ccccc2c1=O)c1ccc([N+](=O)[O-])cc1Cl |  | inactive: -8.14%
19 | CC(/C=N/N1CCN(c2ccccc2)CC1)=C\c1ccccc1 | inconclusive: 31.6 µM [inhibitor, single point] | 
20 | Cc1cc(C)nc(SCc2nnc(SCC(=O)Nc3nc(-c4ccccc4)cs3)n2C)n1 | inconclusive: 39.8 µM [activator, single point] | 
21 | CCO[C@H]1O[C@@H]([C@H](COCc2ccccc2)OCc2ccccc2)[C@@H](OCc2ccccc2)[C@H]1O | inconclusive: 15.8 µM [activator, single point] | 
22 | N#C/C(=C\c1cn(-c2ccccc2)nc1-c1cc2ccccc2o1)c1nc2ccccc2[nH]1 | active: 7.94 µM | 

Row | SMILES | Potency | max response, negative = inhibition
23 | CC(C)[C@H](NS(=O)(=O)c1ccccc1)C(=O)OCC(=O)N1N=C(c2ccc(Cl)cc2)CC1c1ccco1 (some centres undefined) | inconclusive: 39.8 µM [inhibitor, single point] | 
24 | CCOc1ccc2c(c1)-c1c(ssc1=S)C(C)(C)N2C(=O)CSC1=NCCS1 | active: 15.8 µM | 
25 | COc1cc(O)c(C(=O)/C=C/c2ccc(OC)c(O)c2)c(OC)c1 | inconclusive: 39.8 µM [activator, single point] | 
26 | COc1ccc(NC(=S)NCc2ccc3c(c2)cc(C)n3C)cc1 | inconclusive: 31.6 µM [inhibitor, single point] | 
27 | Cc1cc(C)c2c(=O)cc(C(=O)Nc3sc4c(c3C(=O)NCc3ccccc3)CCCC4)oc2c1 |  | inactive: -10.5%
28 | Cc1cccc(C)c1NC(=O)C(NC(=O)CN1C(=O)c2ccccc2C1=O)c1ccccc1 (centres undefined) | inconclusive: 39.8 µM [inhibitor, single point] | 
29 | O=C(Nc1ccc2nc(-c3ccc4nc[nH]c4c3)[nH]c2c1)c1cccs1 | inconclusive: 39.8 µM [inhibitor, single point] | 
30 | O=C(NCc1ccco1)c1ccc(=O)oc1 |  | inactive: -17.2%
31 | Cc1cccc(C(=O)N=c2c(C#N)cc3c(=O)n4cccc(C)c4nc3n2Cc2ccco2)c1 | active: 15.8 µM | 
32 | Cc1cccc(CSc2ncc(CO)n2Cc2ccc(F)cc2)c1 |  | inactive: 6.21%
33 | O=[N+]([O-])c1cc(S(=O)(=O)Nc2cccc(C(F)(F)F)c2)ccc1-n1nnc2ccccc21 | active: 10 µM | 
34 | O=C(COC(=O)c1cc(-c2cccc3ccccc23)nc2ccccc12)NC1CCS(=O)(=O)C1 (centres undefined) | inconclusive: 31.6 µM [activator, single point] | 
35 | O=C(CSc1nnc(CN2CCOCC2)n1-c1ccccc1)N1CCc2ccccc21 | inconclusive: 39.8 µM [activator, single point] | 
36 | Cc1ccc(Cl)cc1N1CCN(C(=O)c2cnc(N3CCOCC3)c3ccccc23)CC1 | inconclusive: 25.1 µM [activator, partial curve] | 
37 | O=C=Nc1ccc(Cc2ccc(N=C=O)cc2)cc1 | active: 15.8 µM | 
38 | COc1cc(OC)cc(C(=O)Oc2c(Sc3ccccc3)c(C)nn2C(C)(C)C)c1 |  | inactive: -5.88%
39 | Cc1cn2c(=O)cc(COC(=O)c3cccc(NC(=O)COc4ccccc4Cl)c3)nc2s1 |  | inactive: 8.7%
40 | COc1ccccc1-c1nc2c(c(SCc3cccc(Cl)c3)n1)Cc1c(CO)cnc(C)c1O2 | inconclusive: 39.8 µM [activator, single point] | 
41 | CC(C)Cn1cnc2c1c(=O)n(CC(O)c1ccccc1)c(=O)n2CC(C)C (centres undefined) | inconclusive: 25.1 µM [activator, partial curve, poor fit] | 
42 | COc1ccccc1CCNC(=O)CCSc1nc(-c2ccco2)cc(C(F)(F)F)n1 | inconclusive: 25.1 µM [activator, single point] | 
43 | O=C(c1ccc(C(F)(F)F)cc1)N1CCC(=O)N(C(COCc2ccc(Cl)cc2)Cc2ccccc2)CC1 (centres undefined) | inconclusive: 12.6 µM [activator, partial curve] | 
44 | CN(/N=C/c1c[nH]c2ccccc12)c1cnn(-c2ccc(F)c(Cl)c2)c(=O)c1Cl | inconclusive: 39.8 µM [inhibitor, single point] | 

Row | SMILES | Potency | max response, negative = inhibition
45 | COc1ccccc1[C@@H]1C(c2ccccc2)=NN(c2ccccc2)[C@H]1C(=O)N1CCOC1=O | inconclusive: 39.8 µM [inhibitor, single point] | 
46 | Cc1ccc(N(CC(=O)NCCc2ccc(Cl)cc2)S(=O)(=O)N(C)C)cc1 | inconclusive: 31.6 µM [activator, partial curve] | 
47 | Cc1cc(C)nc(SCC(=O)N/N=C\C(Br)=C\c2ccccc2)n1 |  | inactive: 6.08%
48 | Cc1ccc(OCC(=O)Nc2ccc(S(=O)(=O)Nc3cc(C)nc(C)n3)cc2)c(Br)c1 | inconclusive: 39.8 µM [activator, single point] | 
49 | CC1CCCCN1C(=S)NCCc1ccccc1 (centres undefined) | inconclusive: 0.0794 µM [inhibitor, full curve] | 
50 | COc1ccc(C2=CC(c3ccc(F)cc3)n3ncc(C(=O)Nc4ccc(C)cc4)c3N2)cc1 (centres undefined) |  | inactive: -27.7%
51 | Cc1nc2sc(C(c3ccco3)N3CCN(c4ccccc4F)CC3)c(O)n2n1 (centres undefined) | inconclusive: 25.1 µM [activator, single point] | 
52 | Cc1ccc(-c2nc3cc(C(C)C)ccc3o2)cc1NC(=O)c1cc2ccccc2o1 | inconclusive: 7.94 µM [inhibitor, single point] | 
53 | CCc1ccc(CNC(=O)c2sc3ncccc3c2-n2c(C)ccc2C)cc1 |  | inactive: -4.78%
54 | CCN1C(=O)/C(=C2/Sc3ccccc3N2CCCS(=O)(=O)O)SC1=S | inconclusive: 31.6 µM [activator, single point] | 
55 | COc1ccc(CCN2C(=O)C(Oc3ccccc3C)C2c2ccc3c(c2)OCO3)cc1OC (centres undefined) | inconclusive: 39.8 µM [activator, single point] | 
56 | Cc1ccc(S(=O)(=O)c2c(N)n(NC(=O)c3ccccc3C)c3nc4ccccc4nc23)cc1 | inconclusive: 39.8 µM [activator, single point] | 
57 | COc1cc(/C=N/NC(=O)c2csc3c2CCCC3)cc(OC)c1O | inconclusive: 39.8 µM [activator, single point] | 
58 | O=C(Nc1cnn(Cc2ccc(Cl)c(Cl)c2)c1)C12CC3CC(CC(C3)C1)C2 | inconclusive: 31.6 µM [inhibitor, single point] | 
59 | O=C(Cn1c(=O)oc2cc(S(=O)(=O)N3CCCCC3)ccc21)Nc1cccc(Cl)c1 | inconclusive: 31.6 µM [inhibitor, single point] | 
60 | CCCCN1C(=O)c2[nH]nc(-c3ccccc3O)c2C1c1cccc(OCc2ccccc2)c1 (centres undefined) |  | inactive: -70.8%
61 | Cc1cc(C)c(Cn2c3ccccc3c3cnn(CC(=O)NC4CCC(C)CC4)c(=O)c32)c(C)c1 (centres undefined) | active: 2 µM | 
62 | Cc1cc(C)c(NC(=O)CSc2nc3ccc(NC(=O)CSc4nnnn4-c4ccccc4)cc3s2)c(C)c1 | inconclusive: 25.1 µM [inhibitor, single point] | 
63 | CCc1ccc(NC(=O)c2cc(C(C)=O)n3ccccc23)cc1 | inconclusive: 39.8 µM [activator, single point] | 
64 | COc1ccccc1C(=O)NC(=S)N1CCCc2ccccc21 | inconclusive: 39.8 µM [inhibitor, single point] | 

From PubChem BioAssay AID1476 (National Center for Advancing Translational Sciences (NCATS), 2009)
